Data published in a compilation of properties of binary mixtures (doi:10.1021/acs.jced.8b00784).
The densities may have been worked out from excess volumes.

Assay: xn = mol fraction of the nth substance listed
Settings: 100 kPa

CCCC[n+]1ccn(C)c1.F[B-](F)(F)F + CC(=O)[O-].CCCC[n+]1ccn(C)c1
mass density (298.15 K, x1 = 1): 1201.2 kg/m3

CC(=O)[O-].CCCC[n+]1ccn(C)c1 + CCCC[n+]1ccn(C)c1.F[B-](F)(F)F
mass density (298.15 K, x2 = 0): 1052.1 kg/m3
mass density (298.15 K, x2 = 0.1): 1066.3 kg/m3
mass density (298.15 K, x2 = 0.2): 1080.4 kg/m3
mass density (298.15 K, x2 = 0.3): 1094.3 kg/m3
mass density (298.15 K, x2 = 0.4): 1107.9 kg/m3
mass density (298.15 K, x2 = 0.5): 1122.1 kg/m3
mass density (298.15 K, x2 = 0.6): 1137 kg/m3
mass density (298.15 K, x2 = 0.8): 1168.1 kg/m3
mass density (298.15 K, x2 = 0.9): 1184.2 kg/m3
mass density (308.15 K, x2 = 0): 1043.1 kg/m3
mass density (308.15 K, x2 = 0.2): 1071.5 kg/m3
mass density (308.15 K, x2 = 0.3): 1085.6 kg/m3
mass density (308.15 K, x2 = 0.4): 1099.2 kg/m3
mass density (308.15 K, x2 = 0.5): 1113.3 kg/m3
mass density (308.15 K, x2 = 0.6): 1128.4 kg/m3
mass density (308.15 K, x2 = 0.7): 1144.2 kg/m3
mass density (308.15 K, x2 = 0.8): 1159.7 kg/m3
mass density (318.15 K, x2 = 0): 1037 kg/m3
mass density (318.15 K, x2 = 0.1): 1051.1 kg/m3
mass density (318.15 K, x2 = 0.4): 1092.9 kg/m3
mass density (318.15 K, x2 = 0.5): 1107.1 kg/m3
mass density (318.15 K, x2 = 0.7): 1137.7 kg/m3
mass density (318.15 K, x2 = 0.8): 1153.4 kg/m3
mass density (318.15 K, x2 = 0.9): 1169.2 kg/m3
